Laboratory results taken from PubChem BioAssay AID445 (National Center for Advancing Translational Sciences (NCATS), 2006).
Among all 110,000 compounds or so, about 40 (0.04%) were called active. This list was built around the results that the source calls inconclusive (neither active nor inactive); the mix of calls is not that of the screen. The call rests on the fitted dose curve; in most records, active means well fitted curve in the direction sought with a large enough effect in the signal ratio (not every such curve was filed as active); inconclusive means small, poorly fitted or top-dose-only effect, or a change in a side signal; inactive means flat fitted curve, though single readings scatter; the % refers to the signal ratio. Where the call is inconclusive, the potency comes from a doubtful curve fit.

assay: IkB Signaling; conditions: ABC-DLBCL IkBa-CBG/CBR dual luciferase ratio (green luciferase fused to IkBa over red control in OCI-Ly3 lymphoma cells), 4 h; IkBa stabilization activation: at 57.1 µM (top of the series), scaled: untreated 0%, proteasome inhibitor 100% unless noted;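 on IkBa stabilization activation: 0% = basal untreated cells and 100% = reference inhibitor full response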
Outline: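 Curves were fitted separately to fusion (green), unfused (red) and ratio luminescence, then classed by r2, magnitude and activity. Cells: OCI-Ly3, 4 h compound plus doxycycline at 37C; 10 uM MG-132 defined full response.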
Potency means the concentration at half of the fitted maximal effect.

**Q.** For O=C(NCCc1ccc(F)cc1)C(=O)NCC(c1cccs1)S(=O)(=O)c1ccc(Cl)cc1 (stereo unspecified), which IkBa stabilization activation is on record?
**A.** Its IkBa stabilization activation is inconclusive: 1.53% [signal inhibitor].

**Q.** With O=C(CSc1nnc(-c2ccccc2)c(-c2ccccc2)n1)NCCc1ccccc1 as the molecule, how does the IkBa stabilization activation read?
**A.** The IkBa stabilization activation was inconclusive: 0.294% [signal inhibitor].

**Q.** With Cc1ccc(C)c(N(C)C(=O)c2cc3c(s2)-c2ccccc2OC3)c1 as the molecule, how does the IkBa stabilization activation read?
**A.** Its IkBa stabilization activation is inconclusive: 0.873% [signal inhibitor].

**Q.** Which IkBa stabilization activation does the source give for Cc1cc(C)c(OCC(=O)N(Cc2ccc(N(C)C)cc2)CC2CCCO2)c(C)c1 (stereo unspecified) here?
**A.** Its IkBa stabilization activation is inconclusive: 1.41% [signal inhibitor].

**Q.** For Cc1cc(=O)n(CC(=O)N2CCCc3ccccc32)c2c1c(C)nn2-c1cccc(F)c1, which IkBa stabilization activation is on record?
**A.** Its IkBa stabilization activation is inconclusive: 0.404% [signal inhibitor].

**Q.** With COc1ccc(N(Cc2cc(=O)[nH]c3ccccc23)C(=O)c2ccco2)cc1 as the molecule, how does the IkBa stabilization activation read?
**A.** The IkBa stabilization activation was inconclusive: 4.12% [signal inhibitor].

**Q.** With CN1CCN(C(=O)c2cc3nc(-c4ccccc4)cc(C(F)(F)F)n3n2)CC1 as the molecule, how does the “IkBa stabilization activation” value read?
**A.** Its value is inactive: -0.65%.

**Q.** Which IkBa stabilization activation does the source give for CCCc1[nH]nc2c1C(c1ccccc1OC)C(C#N)=C(N)O2 (stereo unspecified) here?
**A.** Its IkBa stabilization activation is inconclusive: 18.7%.

**Q.** Which IkBa stabilization activation does the source give for CC(Sc1nnnn1-c1ccccc1)C(=O)Nc1ccc(Cl)cn1 (stereo unspecified) here?
**A.** Its IkBa stabilization activation is inconclusive: -0.438% [signal inhibitor].

**Q.** With COc1cccc(N2C(=O)C(CC(=O)Nc3ccccc3)N(CCc3sccc3C)C2=O)c1 (stereo unspecified) as the molecule, how does the IkBa stabilization activation read?
**A.** Its IkBa stabilization activation is inconclusive: 1.1% [signal inhibitor].

**Q.** With CCc1ccccc1NC(=O)CN1C(=O)C2CCCN2c2ccc(S(=O)(=O)N(CC)CC)cc21 (stereo unspecified) as the molecule, how does the IkBa stabilization activation read?
**A.** Its IkBa stabilization activation is inconclusive: 0.624% [signal inhibitor].

**Q.** Which IkBa stabilization activation does the source give for CC(=O)O[C@H]1CC[C@]2(C)C(=CC[C@H]3[C@H]4C[C@H]5O[C@]6(CC[C@H](C)CN6)[C@H](C)[C@@H]5[C@]4(C)CC[C@@H]32)C1 here?
**A.** Its IkBa stabilization activation is inactive: 0.911% [at 11.4 µM, scaled: untreated 0%, proteasome inhibitor 100%].

**Q.** Which IkBa stabilization activation does the source give for Cc1cccc(C)c1NC(=O)Cn1cc(C(=O)c2ccco2)c2ccccc21 here?
**A.** Its IkBa stabilization activation is inconclusive: 1.78% [signal inhibitor].

**Q.** Which IkBa stabilization activation does the source give for CCc1nc(Nc2ccc(F)c(Cl)c2)c2c3c(sc2n1)CCCC3 here?
**A.** Its IkBa stabilization activation is inconclusive: 8.4% [signal inhibitor].

**Q.** Which “IkBa stabilization activation” value does the source give for O=C(Nc1ccccc1C(=O)NCc1ccco1)c1ccccc1 here?
**A.** Its value is inactive: 1.06%.

**Q.** With CC(NC(=O)c1ccco1)C(c1cccs1)N1CCN(c2ccc(F)cc2)CC1 (stereo unspecified) as the molecule, how does the IkBa stabilization activation read?
**A.** Its IkBa stabilization activation is inconclusive: 3.81% [signal inhibitor].

**Q.** For Cc1ccc2oc(-c3ccc(Cl)cc3)c(O)c(=O)c2c1, which Potency is on record?
**A.** Its Potency is active: 5.01 µM.

**Q.** For Cc1cc(C)n(-c2ccc(C(=O)Nc3ccc(S(=O)(=O)NCc4ccco4)cc3)cc2)n1, which IkBa stabilization activation is on record?
**A.** The IkBa stabilization activation was inconclusive: -1.86% [signal inhibitor].

**Q.** For CN(C)C(=O)c1ccc(-c2cncnc2NCCN2CCOCC2)cc1, which IkBa stabilization activation is on record?
**A.** The IkBa stabilization activation was inactive: -0.938% [at 11.4 µM, scaled: untreated 0%, proteasome inhibitor 100%].

**Q.** With Cc1cc(O)c(C(c2ccccc2)N2CCN(c3ccccc3)CC2)c(=O)n1Cc1ccco1 (stereo unspecified) as the molecule, how does the IkBa stabilization activation read?
**A.** The IkBa stabilization activation was inconclusive: 1.66% [signal inhibitor].

**Q.** Which IkBa stabilization activation does the source give for CCCN(C(=O)Cc1nc(-c2ccc(OC)cc2)no1)c1ccccc1C here?
**A.** Its IkBa stabilization activation is inconclusive: -0.72% [signal inhibitor].

**Q.** With CCc1cccc(C)c1NC(=O)CCCn1c(C)c2cnn(-c3ccccc3)c(=O)c2c1C as the molecule, how does the Potency read?
**A.** Its Potency is inconclusive: 20 µM [signal inhibitor, partial curve].

**Q.** Which IkBa stabilization activation does the source give for CCOC(=O)c1[nH]c(C)c(CCC(=O)Nc2ccccc2OCC)c1C here?
**A.** Its IkBa stabilization activation is inconclusive: -0.999% [signal inhibitor].

**Q.** Which “IkBa stabilization activation” value does the source give for CCCCOC(=O)c1ccc(OC(=O)c2sc3ncn(Cc4cccc(F)c4)c(=O)c3c2C)cc1 here?
**A.** Its value is inactive: 2.79%.

**Q.** Which IkBa stabilization activation does the source give for COc1ccc(C(=O)Nc2nnc(SCc3cc(=O)c4cccc(F)c4[nH]3)s2)cc1 here?
**A.** Its IkBa stabilization activation is inconclusive: -2.47% [signal inhibitor].

**Q.** For CN1C(=O)CC(C(=O)Nc2ccc(C(=O)O)cc2)SC1=Nc1ccc(Cl)cc1 (stereo unspecified), which “IkBa stabilization activation” value is on record?
**A.** Its value is inactive: 8.54%.

**Q.** With Cc1ccc2c(=O)cc(C(=O)Nc3ccc(S(=O)(=O)N4CCCCC4C)cc3)oc2c1C (stereo unspecified) as the molecule, how does the IkBa stabilization activation read?
**A.** Its IkBa stabilization activation is inconclusive: -2.56% [signal inhibitor].

**Q.** For COc1ccc(CCNc2nc(-c3ccco3)cc(C(F)(F)F)n2)cc1OC, which “IkBa stabilization activation” value is on record?
**A.** The value was inactive: 5.59%.

**Q.** With O=C(CSc1nc2ccccc2s1)NC(=O)NCc1ccco1 as the molecule, how does the IkBa stabilization activation read?
**A.** The IkBa stabilization activation was inconclusive: 8.85% [signal inhibitor].

**Q.** For CCN(CC)c1ccc(NS(=O)(=O)c2cc(-c3onc(C)c3C)ccc2OC)c(C)c1, which IkBa stabilization activation is on record?
**A.** Its IkBa stabilization activation is inconclusive: 2.88% [signal inhibitor].

**Q.** Which IkBa stabilization activation does the source give for COc1cccc(-c2nnc(SCC(=O)N(C)c3ccccc3)o2)c1 here?
**A.** The IkBa stabilization activation was inconclusive: -0.566% [signal inhibitor].

**Q.** With Cc1cccc(CNc2ncnc3ccc(-c4cccnc4)cc23)c1 as the molecule, how does the IkBa stabilization activation read?
**A.** The IkBa stabilization activation was inactive: -3.85% [at 11.4 µM, scaled: untreated 0%, proteasome inhibitor 100%].

**Q.** With CC(C)=C[C@H]1[C@@H](COC(=O)c2ccccc2Cl)C1(C)C as the molecule, how does the IkBa stabilization activation read?
**A.** The IkBa stabilization activation was inactive: -0.242% [at 11.4 µM, scaled: untreated 0%, proteasome inhibitor 100%].

**Q.** Which IkBa stabilization activation does the source give for CCn1c2ccccc2c2cc(CN3CCN(Cc4ccc(Cl)cc4)CC3)ccc21 here?
**A.** The IkBa stabilization activation was inconclusive: 12.1% [signal inhibitor].

**Q.** For CCOC(=O)c1ccc(NC(=O)CC2C(=O)N(c3cccc(OC)c3)C(=O)N2Cc2cccnc2)cc1 (stereo unspecified), which IkBa stabilization activation is on record?
**A.** The IkBa stabilization activation was inconclusive: 4.64% [signal inhibitor].

**Q.** With CC(=O)c1ccc(NC(=O)C(C)n2nc(-c3ccccc3)ccc2=O)cc1 (stereo unspecified) as the molecule, how does the “IkBa stabilization activation” value read?
**A.** Its value is inactive: 1.28%.

**Q.** For CCOCCCn1c(C)nc2c(c1=O)c1nc3ccccc3nc1n2CCC1=CCCCC1, which “IkBa stabilization activation” value is on record?
**A.** Its value is inactive: -1.16%.

**Q.** With COc1cc(CNC(=O)c2sc3ncccc3c2-n2cccc2)cc(OC)c1OC as the molecule, how does the IkBa stabilization activation read?
**A.** The IkBa stabilization activation was inconclusive: 0.446% [signal inhibitor].

**Q.** For COc1ccc(NC(=O)CN2C(=O)C(C)(C)c3ccccc32)cc1Cl, which IkBa stabilization activation is on record?
**A.** The IkBa stabilization activation was inconclusive: 2.39% [signal inhibitor].

**Q.** With CSc1ccc(CCNC(=O)C2=C(C)C(=O)OC23CCCCC3)cc1 as the molecule, how does the IkBa stabilization activation read?
**A.** The IkBa stabilization activation was inconclusive: -0.597% [signal inhibitor].

**Q.** Which Potency does the source give for COCCSc1nc2sc3c(c2c(=O)n1-c1ccccc1)CCN(C)C3 here?
**A.** Its Potency is inconclusive: 12.6 µM [signal inhibitor, partial curve].
